Measurements taken from article PMC8325870, “SUMOylated non-canonical polycomb PRC1.6 complex as a prerequisite for recruitment of transcription factor RBPJ”.
These are yes or no findings as the source states them, for the method shown. In cells and extracts the contact can be indirect. Some results given as binding are weak or reduced against the parent protein; the word gives no strength. One block for each substance: values may come before it.

Sequences of proteins named here, by UniProt entry; tags and fusion partners are left off. A change or cut given only in a name is not applied to a line headed by its entry. Residues count along the entry.
UniProt P31266: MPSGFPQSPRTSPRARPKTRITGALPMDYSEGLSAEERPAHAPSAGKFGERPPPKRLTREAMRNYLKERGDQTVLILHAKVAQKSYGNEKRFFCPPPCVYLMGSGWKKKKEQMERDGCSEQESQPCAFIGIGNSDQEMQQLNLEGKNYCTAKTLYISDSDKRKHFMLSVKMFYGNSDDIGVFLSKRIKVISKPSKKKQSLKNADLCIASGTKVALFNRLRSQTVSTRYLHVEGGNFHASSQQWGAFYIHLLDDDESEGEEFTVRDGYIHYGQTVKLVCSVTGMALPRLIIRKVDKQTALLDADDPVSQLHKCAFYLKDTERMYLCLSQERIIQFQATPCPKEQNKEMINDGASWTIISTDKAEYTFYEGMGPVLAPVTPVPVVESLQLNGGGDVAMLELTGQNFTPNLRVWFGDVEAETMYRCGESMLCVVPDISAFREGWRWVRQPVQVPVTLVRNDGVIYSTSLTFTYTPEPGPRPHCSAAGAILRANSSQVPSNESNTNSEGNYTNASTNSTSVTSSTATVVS
UniProt P59178: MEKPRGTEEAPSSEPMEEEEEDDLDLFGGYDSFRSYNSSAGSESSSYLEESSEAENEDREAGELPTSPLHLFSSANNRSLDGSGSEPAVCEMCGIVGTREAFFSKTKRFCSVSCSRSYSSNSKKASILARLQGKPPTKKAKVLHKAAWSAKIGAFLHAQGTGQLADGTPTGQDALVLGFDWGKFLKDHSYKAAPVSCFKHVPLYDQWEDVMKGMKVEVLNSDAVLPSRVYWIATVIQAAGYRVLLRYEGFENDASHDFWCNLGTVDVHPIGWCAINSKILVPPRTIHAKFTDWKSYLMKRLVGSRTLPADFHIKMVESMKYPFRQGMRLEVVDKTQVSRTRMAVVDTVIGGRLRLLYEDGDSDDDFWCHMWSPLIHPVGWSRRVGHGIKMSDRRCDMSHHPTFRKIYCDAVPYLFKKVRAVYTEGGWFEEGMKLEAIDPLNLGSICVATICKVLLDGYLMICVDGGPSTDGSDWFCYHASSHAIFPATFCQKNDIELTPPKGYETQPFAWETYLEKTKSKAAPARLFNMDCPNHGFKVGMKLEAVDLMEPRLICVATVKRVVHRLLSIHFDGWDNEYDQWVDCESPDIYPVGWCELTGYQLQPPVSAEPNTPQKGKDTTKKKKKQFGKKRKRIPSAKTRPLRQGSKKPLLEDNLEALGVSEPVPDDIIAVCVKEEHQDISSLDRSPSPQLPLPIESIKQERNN
UniProt P61956: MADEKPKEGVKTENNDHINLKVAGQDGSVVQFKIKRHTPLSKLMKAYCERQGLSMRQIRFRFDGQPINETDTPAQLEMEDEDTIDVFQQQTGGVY
UniProt P55854, residues 1-92: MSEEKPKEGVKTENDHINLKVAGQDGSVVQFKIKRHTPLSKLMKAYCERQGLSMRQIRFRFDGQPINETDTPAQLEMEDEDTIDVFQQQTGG
UniProt P63165, residues 1-97: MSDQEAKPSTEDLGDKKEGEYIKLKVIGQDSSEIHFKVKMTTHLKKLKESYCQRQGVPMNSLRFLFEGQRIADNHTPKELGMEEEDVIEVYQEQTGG
UniProt Q969R5: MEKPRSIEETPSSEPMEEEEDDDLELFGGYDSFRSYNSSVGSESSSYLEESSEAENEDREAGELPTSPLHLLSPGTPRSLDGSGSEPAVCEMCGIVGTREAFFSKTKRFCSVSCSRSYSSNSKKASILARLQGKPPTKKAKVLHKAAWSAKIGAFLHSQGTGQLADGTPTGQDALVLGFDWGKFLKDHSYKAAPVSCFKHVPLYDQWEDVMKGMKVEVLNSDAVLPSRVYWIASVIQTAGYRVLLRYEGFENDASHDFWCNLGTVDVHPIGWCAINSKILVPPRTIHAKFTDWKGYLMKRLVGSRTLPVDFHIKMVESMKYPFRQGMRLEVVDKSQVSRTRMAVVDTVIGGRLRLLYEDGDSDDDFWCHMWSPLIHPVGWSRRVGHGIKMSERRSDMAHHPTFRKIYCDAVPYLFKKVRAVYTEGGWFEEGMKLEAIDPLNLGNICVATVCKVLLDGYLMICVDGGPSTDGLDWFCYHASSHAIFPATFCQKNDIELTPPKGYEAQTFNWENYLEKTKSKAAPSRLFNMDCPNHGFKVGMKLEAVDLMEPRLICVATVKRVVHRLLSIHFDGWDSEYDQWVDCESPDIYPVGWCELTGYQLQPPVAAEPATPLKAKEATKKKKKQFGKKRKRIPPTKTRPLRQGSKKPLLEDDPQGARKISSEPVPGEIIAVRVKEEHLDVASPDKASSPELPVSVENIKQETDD
UniProt Q06330: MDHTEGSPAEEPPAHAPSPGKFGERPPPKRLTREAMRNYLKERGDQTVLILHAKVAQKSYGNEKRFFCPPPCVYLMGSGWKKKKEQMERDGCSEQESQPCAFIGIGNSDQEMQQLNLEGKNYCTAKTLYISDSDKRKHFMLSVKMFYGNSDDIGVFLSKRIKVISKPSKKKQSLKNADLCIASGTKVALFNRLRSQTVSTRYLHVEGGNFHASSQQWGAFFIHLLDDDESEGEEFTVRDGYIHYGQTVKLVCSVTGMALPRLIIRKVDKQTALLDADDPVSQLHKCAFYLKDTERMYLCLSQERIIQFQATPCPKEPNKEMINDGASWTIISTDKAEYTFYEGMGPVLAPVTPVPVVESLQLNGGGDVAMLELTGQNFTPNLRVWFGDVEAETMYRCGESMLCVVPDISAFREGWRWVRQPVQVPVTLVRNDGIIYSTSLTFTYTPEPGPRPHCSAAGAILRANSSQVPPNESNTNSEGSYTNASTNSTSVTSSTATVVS

How the values were obtained:
[1] = target: GFP-RBPJ wild type (mouse) (UniProt P31266); test: co-IP; HEK293T cells transfected with the GFP fusion (with or without a Flag-tagged partner); extracts (10 mM Tris/HCl pH 7.5, 150 mM NaCl, 0.5 mM EDTA, 0.5% NP-40) on GFP TRAP beads 1 h at 4 °C; Western blotting; in some panels cells treated with 10 µM ML-792 or vehicle for 24 h, or heat shocked (1 h 42 °C, 1 h recovery at 37 °C)
[2] = target: Endogenous L3MBTL2 (mouse Beko T-ALL cells) (mouse (endogenous in Beko)) (UniProt P59178); test: co-IP; Protein extracts of mouse Beko cell lysates immunoprecipitated with L3MBTL2 antibody or IgG as control; Western blotting with anti-L3MBTL2 and anti-RBPJ antibody; endogenous proteins
GST-SUMO2 = GST-SUMO2 (UniProt P61956); test: pull-down; Modified GST pulldown: GST or GST-SUMO fusion proteins immobilized on Glutathione Sepharose beads; whole cell extract of transfected HEK293T cells added for 4 h at 4 °C; five washes in ice cold PBS; Western blotting; only the target purified
GST-SUMO3 = GST-SUMO3 (UniProt P55854); test: as above
GST-SUMO1 = GST-SUMO1 (UniProt P63165); test: as above
[3] = target: GST-RBPJ fusion protein (not stated (human or mouse cDNA cloned)) (UniProt P31266); test: pull-down; GST or GST fusion protein immobilized on Glutathione Sepharose beads; [35S] methionine-labelled protein in vitro translated in rabbit reticulocyte lysate; buffer A (40 mM HEPES pH 7.5, 0.2 mM EDTA, 5 mM MgCl2, 100 mM KCl, 0.5% NP-40) 1 h at 4 °C; washes up to 300 mM KCl; SDS-PAGE and autoradiography; only the target purified
GST-L3MBTL2 = GST-L3MBTL2 (UniProt Q969R5); test: as above

Substance: Endogenous RBPJ (mouse Beko T-ALL cells) (from UniProt P31266 1-526)
binding [2]: binds

Substance: Flag-L3MBTL2 (from UniProt Q969R5 1-705)
binding [1]: binds

Substance: Flag-RBPJ (from UniProt P31266 1-526)
binding (GST-SUMO2): binds | binding (GST-SUMO3): binds | binding (GST-SUMO1): binds weakly

Substance: L3MBTL2 ΔC (aa1-603) (from UniProt Q969R5 1-603) (domain or fragment)
binding [3]: binds

Substance: L3MBTL2 ΔN (aa179-705) (from UniProt Q969R5 179-705) (domain or fragment)
binding [3]: binds

Other lines, results leading:

binding [1]: binds
Substance: Endogenous L3MBTL2 (HEK293T) (from UniProt Q969R5 1-705)

binding (GST-SUMO2): binds
Substance: GFP-RBPJ wild type (from UniProt P31266 1-526)

binding (GST-SUMO2): no binding
Substance: GFP-RBPJ ∆NTD mutant (from UniProt P31266 206-526) (domain or fragment)

binding (GST-L3MBTL2): binds
Substance: [35S] methionine-labelled RBPJ (from UniProt Q06330 1-500)
